In all, about 150,000 compounds went through this assay and about 540 (0.36%) showed an effect of 50% or more. The list shows a part of the results.
These molecules were tested on Plasmodium falciparum (assay: Primary screen in NF54 nanoGlo assay, in single point, at 2uM, 72h; a lower Z score goes with more inhibition). Details: timepoint 72 hour.
Assay type: functional, Erythrocyte

Compound | % Inhibition [%] | Z score
O=C([C@H]1CCCN(C2CCN(Cc3ccncc3)CC2)C1)N1Cc2ccccc2C1 | -5 | 1.04
CC(NC(=O)C1CCC1)C(=O)NC(CN1CCOCC1)C(C)C (configuration not stated) | -3 | 0.7
CCC(NC1CCCN(CC(F)(F)F)C1=O)C(=O)OC (configuration not stated) | 0 | 0.05
OC[C@@H](O)CN1CCc2[nH]nc(-c3cccc4ccccc34)c2C1 | -4 | 0.5
Cc1ccc(CN2C[C@@H]3OC(=O)N(C4CCCC4)[C@@H]3C2)cc1C | 6 | -0.89
COCCNC(=O)c1coc(CN(Cc2ccc(C(F)(F)F)cc2)Cc2ccc3c(c2)OCO3)n1 | -6 | 1.02
O=C(O)Cc1csc(-c2cccc3ccccc23)n1 | 3 | -0.57
Cc1ccc(S(=O)(=O)/N=C(\CN2CCOCC2)N2CCCCC2)cc1 | -1 | 0.11
Cc1cc(COc2ccccc2)oc1C(=O)N1CC(n2cccn2)C1 | -3 | 0.58
CC(C)OCC[C@@](C)(C#N)NC(=O)c1ccc(F)c(Cl)c1F | -2 | 0.21
O=C1[C@@H]2[C@H](CO)N[C@]3(C(=O)Nc4ccccc43)[C@@H]2C(=O)N1Cc1ccccc1 | -2 | 0.32
CN(Cc1cnc2ccccc2c1)C(=O)c1ccc(CCC(C)(C)O)cc1 | -5 | 0.64
O=C(N[C@H]1CCS(=O)(=O)C1)c1cccc(Oc2cccc(C(F)(F)F)c2)c1 | -25 | 2.94
Clc1ccc(-c2c[nH]c([C@@H]3COCCN3C3CCCCC3)n2)s1 | -12 | 1.58
Cc1occc1C(=O)N1C[C@@H](COc2ccncc2)[C@H](C(N)=O)C1 | -2 | 0.38
O=C(c1ccc(OC[C@H]2CCCO2)nc1)N1CCC(F)(F)CC1 | 4 | -0.63
CC1CC2(CCC2)CN1C(=O)C1CCN(C)C(=O)C1 (configuration not stated) | -15 | 1.95
CCCCn1nc(C)nc1-c1cc(C)nc2onc(C)c12 | 0 | -0.02
O=C(NC1CC1)c1ccc(N2CC[C@H](NCc3ccc(F)cc3)C2)nc1 | -21 | 2.13
Cc1ccc(-c2ncn(C3CCCCC3)c2-c2ccc(C(=O)NCc3ccccc3)o2)cc1 | -8 | 1.2
CC1CN(Cc2cnn(C3(C)CCS(=O)(=O)C3)c2)C(C)(C)CO1 (configuration not stated) | -1 | 0.11

Compound | % Inhibition [%] | Z score
CO[C@@H]1CCC[C@@H]2CN(C(=O)c3cccc4[nH]ccc34)C[C@@H]21 | 2 | -0.18
COCC(=O)N1CC[C@H]2CC(=O)Nc3cc(-c4ccccc4)ccc3OCC[C@H]2C1 | 27 | -3.01
CN(Cc1ccc(Br)o1)c1ncccc1S(N)(=O)=O | -12 | 1.41
CN(C)c1ccc(NC(=O)C2(N(Cc3ccccc3)C(=O)Cn3nnc4ccccc43)CCCC2)cc1 | 5 | -0.62
O=C(NCc1ccccc1F)C1Cc2cc(C(F)(F)F)ccc2N2CCN(c3ccc(F)cc3)CC12 (configuration not stated) | -4 | 0.74
Cc1ccc2nc(-c3cnoc3C)cn2c1 | 0 | 0.04
CCc1cccc(CN2C(=O)[C@@H]3CN(C(N)=O)CCN3C2=O)c1 | -18 | 2.15
COCCn1c(C(=O)Nc2nc([C@@H]3CCCO3)n[nH]2)cc2cc(Cl)ccc21 | -5 | 0.49
O=C(NCCc1ccsc1)[C@@H]1CCCO1 | -9 | 0.99
CC1CCN2C(=O)N(c3cccc(N4CCNC4=O)c3)C(=O)C2C1 (configuration not stated) | -7 | 1.26
O=C(O)[C@H]1CN(c2ncccn2)CC12CCCCC2 | -17 | 2.12
Cc1ccc(C)c(C(=O)N2CCC[C@H]2c2ccncc2)c1 | 0 | 0.01
CO[C@H]1COC[C@H]1NC(=O)NCC1=CCCCC1 | -2 | 0.21
C[C@H](NC(=O)C1CN(S(C)(=O)=O)C1)c1ccccc1 | -13 | 2.08
C[C@@H]1OCCO[C@@H]1C(=O)Nc1cnnn1-c1ccccc1 | -4 | 0.75
c1cc(N2CCCCC2)ncc1CNC(C1CCC1)C1CCC1 | 2 | -0.25
O=C(c1cnc2ccccc2n1)N1CCCCCC1 | 0 | 0.03
CCN1CCN(CC(=O)N2C[C@H]3CC=CC[C@H]3C2)CC1 | -2 | 0.15
CC(C)c1nc(CO[C@H]2CCCc3c[nH]nc32)cs1 | -14 | 1.43
O=C(NC[C@H](O)COc1ccc(F)cc1)C1=CCCCCC1 | -9 | 0.81

From ChEMBL document CHEMBL4888484, “Replenishing the malaria drug discovery pipeline: Screening and hit evaluation of the MMV Hit Generation Library 1 (HGL1) against asexual blood stage Plasmodium falciparum ,using a nano luciferase reporter read-out” (2022)
